# Results: PubChem BioAssay AID488969 (Vanderbilt High Throughput Screening Facility, 2010)
# The full ranking holds about 110,000 compounds; the median of “z-score” is about -0.1, and the highest 2% start at about 2. The list shows a part of the results. Activity calls are given as the source filed them.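 Rule for the calls: active = z-score in the third read window above 3 or below -3; inactive = the rest.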
# Target: Metabotropic glutamate receptor 8 (Rattus norvegicus) (UniProt P70579)
# Assay: mGluR8 Gi/Go-coupled signaling modulation – cell-based, rat, thallium flux, HTS, primary screen (AID 488969)
# Conditions: HEK293 rat mGluR8, GIRK (G protein-gated inwardly rectifying potassium channel) thallium flux, FluoZin2; at 10 µM; stronger effect = higher value; submaximal glutamate (EC20) added with thallium
# Sequence of UniProt P70579 (P70579 whole entry, looked up): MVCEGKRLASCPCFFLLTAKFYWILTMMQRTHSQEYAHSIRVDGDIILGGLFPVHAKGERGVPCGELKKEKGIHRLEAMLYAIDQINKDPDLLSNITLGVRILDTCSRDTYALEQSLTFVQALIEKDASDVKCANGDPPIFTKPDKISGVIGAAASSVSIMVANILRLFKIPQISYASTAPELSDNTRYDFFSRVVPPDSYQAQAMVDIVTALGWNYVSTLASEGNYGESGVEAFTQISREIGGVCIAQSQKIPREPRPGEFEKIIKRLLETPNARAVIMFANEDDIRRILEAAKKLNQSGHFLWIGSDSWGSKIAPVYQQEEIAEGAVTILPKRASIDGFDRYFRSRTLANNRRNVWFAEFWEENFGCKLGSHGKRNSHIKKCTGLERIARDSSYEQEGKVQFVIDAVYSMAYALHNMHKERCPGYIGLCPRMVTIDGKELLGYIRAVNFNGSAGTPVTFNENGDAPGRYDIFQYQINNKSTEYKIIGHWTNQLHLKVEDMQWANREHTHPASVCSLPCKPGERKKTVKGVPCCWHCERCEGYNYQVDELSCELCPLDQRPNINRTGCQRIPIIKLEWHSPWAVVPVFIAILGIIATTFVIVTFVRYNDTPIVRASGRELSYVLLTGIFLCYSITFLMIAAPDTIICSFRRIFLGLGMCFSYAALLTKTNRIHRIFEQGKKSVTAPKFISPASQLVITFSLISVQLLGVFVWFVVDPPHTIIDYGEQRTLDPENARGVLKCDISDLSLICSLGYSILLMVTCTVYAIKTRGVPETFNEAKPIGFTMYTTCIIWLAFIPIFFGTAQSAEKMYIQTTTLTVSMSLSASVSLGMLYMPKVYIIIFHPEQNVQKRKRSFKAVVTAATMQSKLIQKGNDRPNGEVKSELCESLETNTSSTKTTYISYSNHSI
row,Compound,z-score
1,COc1ccc(S(=O)(=O)NCc2ccc3c(c2)OCO3)cc1C,-0.278
2,Cc1cc([N+](=O)[O-])ccc1NC(=S)NC(=O)Cc1ccccc1,active: 6.82
3,CC(=O)n1nc(-c2ccccc2)nc1NCc1ccc(F)cc1,-0.913
4,O=c1cc(NC2CCCCC2)c2ccccc2o1,-0.207
5,O=C(CSc1nnc(Cc2ccccc2)n1-c1ccccc1)NNC(=O)Cc1ccccc1,-0.266
6,CCC(=O)c1cc2c(C)cc(=O)oc2c(C)c1O,0.19
7,COc1cccc(C(=O)COC(=O)c2ccc(NC(C)=O)cc2)c1,0.201
8,Cc1cc(NC(=O)c2c([N+](=O)[O-])cnn2C)no1,-0.164
9,C=CCNC(=S)NCCCCC1NC(=S)N(CC=C)C1=O (configuration not stated),-0.0297
10,CCCCNC(=O)Cn1nc([N+](=O)[O-])c([N+](=O)[O-])c1C,-0.27
11,CC(C)NC(=S)NNC(=O)C12CC3CC(CC(C3)C1)C2,-0.0299
12,O=C(Nc1nncs1)c1cccc(S(=O)(=O)N2CCOCC2)c1,0.353
13,CCCCNc1nc2c(c(=O)[nH]c(=O)n2C)n1CCOc1ccccc1,0.106
14,Cc1ccccc1NC(=O)N1CCCC(c2nc(-c3ccc(C(C)C)cc3)no2)C1 (configuration not stated),-0.239
15,Cc1ccc(C)c(NC(=O)C2CC3c4ccccc4C2c2ccccc23)c1 (configuration not stated),0.151
16,CC(C)[C@H](NC(=O)NCc1cccs1)C(=O)O,0.105
17,CN(C)C(=O)c1ccc(Oc2ccc(C(=O)N(C)C)cc2)cc1,2.6
18,O=C(Cc1cn2ccsc2n1)OCc1nc2ccccc2s1,0.0367
19,Cc1ccc(S(=O)(=O)N(C#N)c2nc(C)cc(C)n2)cc1,-0.212
20,CCCCOC(=O)Nc1nc(C)c(C(=O)OCC)s1,-0.0329
21,Cc1cc(C)c2c(N)c(-c3nc4ccccc4[nH]3)sc2n1,-0.418
22,COc1cccc(-c2noc(C3CCCN(S(=O)(=O)c4cccc(Cl)c4C)C3)n2)c1 (configuration not stated),0.354
23,O=C(O)Cn1ccnc1,-0.327
24,Cc1ccc(-c2csc(-c3c[nH]c4ccccc34)n2)c(C)c1,-0.17

row,Compound,z-score
1,Oc1[nH]c2ccccc2c1N=NC(=S)NCC1CCCO1 (configuration not stated),active: 3.01
2,COc1ccc(-c2[nH]ncc2/C=N\NS(=O)(=O)c2ccccc2)cc1OC,-0.2
3,CCCCN(NC(C)=O)c1nc(Cl)nc(NC(C)C)n1,-0.129
4,CCOC(=O)c1ccc(NC(=O)C2CC2)cc1,-0.0174
5,COc1cc(CNCCCN2CCOCC2)cc(Br)c1OCC(=O)N1CCCCC1,-0.0144
6,Cc1n[nH]c(=O)nc1NCC1CCCO1 (configuration not stated),-0.169
7,CC1CC(C)(C)NC(=S)N1CC(=O)N(C)Cc1ccccc1 (configuration not stated),-0.189
8,C/C(=N\Nc1ccc([N+](=O)[O-])cc1)c1cccc(N)c1,-0.247
9,O=C(CCn1c(=O)oc2ccccc21)Nc1ccon1,0.238
10,Cc1nc(NC(=O)C(C)Oc2cccc(Cl)c2)sc1C(=O)N(C)C (configuration not stated),-0.251
11,Cc1cc(Cl)c(S(=O)(=O)NCc2cccnc2)cc1OCC(N)=O,0.034
12,Cc1ccc(CSc2ccc(-c3ccco3)nn2)cc1,0.361
13,Cc1onc(-c2ccccc2)c1C(=O)Nc1nc(-c2ccccc2)cs1,-0.393
14,Cc1cccc(-n2cnc(C(=O)NC3CCCCCC3)c2)n1,-0.376
15,Cc1ccc(C(=O)NCC(=O)OCc2csc(-c3ccccc3)n2)cc1,-0.0892
16,CCN1C(=O)CC(n2c(C)nc3ccccc32)C1=O (configuration not stated),0.288
17,CC(C(=O)NCCN1C(=O)S/C(=C\c2cccs2)C1=O)N1C(=O)c2ccccc2C1=O (configuration not stated),-0.139
18,COC(=O)c1nnn(-c2nonc2N)c1CSc1nc2ccccc2s1,0.29
19,COc1ccc(C=O)cc1COc1c(F)c(F)cc(F)c1F,-0.366
20,O=C(C1CC(c2ccc(F)cc2)=NO1)N1CCN(Cc2ccccc2)CC1 (configuration not stated),-0.104
21,CCCCn1c(SCC(=O)Nc2ccc3c(c2)CCC3)nc2ccccc2c1=O,0.449
22,CC(C)c1nc(N2CCOCC2)c(C#N)c2c1COC(C)(C)C2,0.752
23,CCOC(=O)CCSc1nc(C)c2cc(C)c(C)cc2n1,-0.215
24,COc1ccc(NC(=O)/C(C#N)=C/c2cc(C)n(-c3ccc(N4CCOCC4)c([N+](=O)[O-])c3)c2C)cc1,-0.109

row,Compound,z-score
1,O=C(NCCN1CCCCCC1)c1ccc(CS(=O)(=O)c2ccc(Br)cc2)o1,-0.338
2,CCC(=O)Nc1nc(OC)cc(OC)n1,0.0522
3,Cc1ccc(S(=O)(=O)Nc2ccc3c(c2)CCC3)cc1,-0.101
4,CCCS(=O)(=O)N1CCN(Cc2ccc(OCc3ccccc3)c(OC)c2)CC1,-1.96
5,O=C(COC(=O)c1ccccc1O)Nc1ccc(OC(F)F)cc1,0.198
6,O=C(Nc1ccc(O)c(-c2nc3ccccc3s2)c1)C1=COCCO1,active: -4.15
7,CC1=CC(C)C2C(=O)N(O)C(=O)C2C1 (configuration not stated),-0.584
8,O=C(CSc1ncn[nH]1)c1ccc2c(c1)OCO2,0.0524
9,COC(=O)c1ccc2nc(Nc3nc4ccc(F)cc4s3)sc2c1,0.254
10,O=C(Nc1ccc2oc(-c3cccnc3)nc2c1)c1ccc(Br)o1,-0.17
11,COc1ccc(NC(=O)c2ccc(OC(F)F)cc2)cc1Cl,-0.559
12,COc1cc(CNn2nnnc2N)cc(Br)c1OCC(=O)NC(C)(C)C,-0.0782
13,O=C(CSc1nccc(=O)[nH]1)N1c2ccccc2CCc2ccccc21,0.789
14,COc1cccc(/C=N/N2C(=O)C3C4c5ccccc5C(c5ccccc54)C3C2=O)c1OC (configuration not stated),1.07
15,CCOC(=O)c1c(NC(=O)CC2Sc3ccc(C(F)(F)F)cc3NC2=O)sc(C)c1C (configuration not stated),-0.162
16,O=C(/C=C\c1ccco1)Nc1nc(-c2ccc3ccccc3c2)cs1,-0.0451
17,CC(C)Oc1ccc(CNC(=O)Cn2c(=O)oc3ccccc32)cc1,-0.0192
18,COc1ccccc1N1CCN(/N=C/c2c(C)nn(-c3ccccc3)c2C)CC1,-0.0643
19,Cc1ccc(C(=O)CSc2nnc(COc3cc(C)cc(C)c3)o2)cc1,0.0827
20,COc1cccc(C2C(C#N)=C(N)N(c3ncn[nH]3)C3=C2C(=O)CCC3)c1 (configuration not stated),-0.241
21,Cc1nn(Cc2ccc(Cl)cc2)c(C)c1NC(=O)c1noc2c1CCc1ccccc1-2,-0.182
22,Cc1cccc(C)c1NC(=O)CSc1nnc(C)n1-c1ccccc1,-0.199
23,CCOC(=O)c1cnc(SCC(=O)Nc2ccc(NC(=O)CC)c(OC)c2)nc1N,-0.185
24,Cc1cc(C)c(C)c(S(=O)(=O)NCC(=O)N2CCCC2)c1C,-0.391
